Results on 1 compound are retold here after PubChem BioAssay (NCI).

Some test systems named below: NCI/ADR-RES ovarian; SR leukemia; RPMI-8226 leukemia; SK-MEL-5 melanoma; CCRF-CEM leukemia.
Common to all, as to assay: NCI anticancer screen, dose series, 384-well format

SMILES strings stand for the structures.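 GI50: concentration for 50% inhibition of growth. Definition used: TGI = concentration required for complete inhibition of growth.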

For the compound `O=C(CCCCCCC(=O)Nc1ccccc1)NO`, the GI50 in the experiment on NCI/ADR-RES ovarian is 241 nM; with SR leukemia, 203 nM; in the experiment with RPMI-8226 leukemia, 206 nM; in the experiment with SK-MEL-5 melanoma it was 285 nM; in the experiment with CCRF-CEM leukemia, 178 nM. The TGI with NCI/ADR-RES ovarian amounted to 668 nM; in the experiment with SR leukemia, 375 nM; in the experiment with RPMI-8226 leukemia, 462 nM; in the experiment on SK-MEL-5 melanoma, 965 nM; with CCRF-CEM leukemia, 324 nM.
